± gives the standard deviation of the averaged measurements. The list shows a part of the results.
system: PfAP2-EXP AP2 domain (GST-tagged); test: gcPBM binding intensity (ln(normalized median fluorescence intensity)); higher = stronger DNA binding
Outline: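 Probes on an Agilent 4 × 180k array were primer-extended, double-stranded and 36 bp long, taken from intergenic genomic regions, with negative controls added. GST-tagged P. falciparum DNA-binding domains from E. coli, about 25 μg on average, were applied to the array for 1 h in 1× PBS containing 1% milk, 0.2 mg/ml BSA, 0.5% salmon testes DNA and 0.03% Triton X-100. Binding intensity, obtained after Alexa488 anti-GST antibody detection and a 488 nm scan, is the highest Masliner-normalised natural-log median intensity across replicate spots of either probe orientation.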

Sequence	gcPBM binding intensity (ln)
ACAAGTTTAACATTTCGTACTTATTGTGTTTTTTTT [XGTACX_site5487]	8.76 ± 0.51
GCAGTATTTCGGAACACACAAACATAAATATGTATT [CACACA_site2316]	8.45 ± 0.42
ATATATATATATGTATGTACATATTTTTTTTAACAC [XGTACX_site8475]	9.93 ± 0.4
ATATATATTTAAAGATGTACATAATGAAATGGTTAT [XGTACX_site4706]	8.92 ± 0.3
AGCACAGACGGACACACACACACACCCACAGACACA [CACACA_site4358]	8.49 ± 0.49
AAATTTATTTATTATAGTACACTTAATACTACCCAA [XGTACX_site41]	8.3 ± 0.35
GCACAATTTACACTTAAACACACAAAAAAAAATTAT [CACACA_site8642]	8.52 ± 0.52
AAATTAGACTATAATACACACATAAAAAAAAAAAAA [CACACA_site6155]	8.4 ± 0.57
AGATATCTTGTGAAATAAAAAAAATAATTGCTTATA [CACACA_negctrl_site798]	8.13 ± 0.48
AAGGCAAACAAACACACACACATATATACCTATATA [CACACA_site5203]	8.55 ± 0.51
AGAAATGAAATCCAAAAACGAGGAACCAATAACGCA [CACACA_negctrl_site1758]	8.89 ± 0.56
TCTTATCCATATATTACACACTATATATAGAAATTA [CACACA_site291]	8.62 ± 0.46
ATATTATATTATTAATGTACATATATATAATTTTAA [XGTACX_site4974]	8.28 ± 0.38
TACATACATACATACACACACACATATATATATATA [CACACA_site42]	10 ± 0.28
TAGGTCCTCATTTTATGTACATAAAGAAATATGATT [XGTACX_site4138]	8.57 ± 0.35
AAAGAAAAAAAAATTACACACATATATTATAGATAT [CACACA_site7495]	8.4 ± 0.33
TCCTTCGAAACTAAAATTCATTTAAAATATTGATAT [CACACA_negctrl_site369]	8.16 ± 0.52
ATATATGCTAATATATGTACTGATTATATCTCTTCA [XGTACX_site7156]	8.2 ± 0.31
TATTTATAGATATATACACACATATACATATTGTTT [CACACA_site7611]	8.35 ± 0.31

Sequence	gcPBM binding intensity (ln)
ATATAAACATTTAGTAATCCATATAGGTACTACTGA [CACACA_negctrl_site1249]	8.13 ± 0.33
AAAAAAAATATATAAACACACATATTTATATACGCA [CACACA_site1631]	8.3 ± 0.42
TAGTATTAAATATATACACACATATATACATATAGA [CACACA_site2154]	8.16 ± 0.39
TTAATTTTTTTTTCTTGTACACACTATTTTATAATT [XGTACX_site8783]	8.86 ± 0.4
GCAGCAGCATTTTCAGTGCATTATTATATTGTTCAT [GTGCAC_site9926]	8.69 ± 0.22
GTGTACTTTTAAATAGTGCATTTTACAATAATAAAA [GTGCAC_site9653]	8.69 ± 0.092
GTTGCACAATGTTACACACACAATATATATCGTTAA [CACACA_site1275]	8.71 ± 0.31
TATTATAATACTTATTGTACTTTTAGGTTAATTTAT [XGTACX_site995]	8.48 ± 0.35
GTAATAAAATGACATACATGCATTACAATTATGTAA [TGCATGCA_site220]	8.4 ± 0.22
CCCTTTTTTTTTTAATGTACATATAATTATATATTT [XGTACX_site8568]	8.9 ± 0.38
GGAAACCTTTTTTTTACACACAATATATTAAGACTT [CACACA_site4899]	8.38 ± 0.41
AATTGTACGTAGGGGTATAAAAGCTTAAAAATGGGG [CACACA_negctrl_site1392]	9.53 ± 0.57
AAAGCAAAAGGAAAATAACCAACCCTAATTAACACA [CACACA_negctrl_site530]	8.6 ± 0.55
ACCTAATATTATTAAACATGCACATTTGCATAAATA [TGCATGCA_site870]	8.61 ± 0.18
AAATAATTCAAAAAAACACACAAATTACAAAATAAA [CACACA_site269]	8.67 ± 0.42
CAAAATGAAAGGAAAAGTACATTTAAATGAATAAAT [XGTACX_site8241]	8.93 ± 0.47
TAAAAATATATTATATGTACGTATAACAATGTATGA [XGTACX_site8606]	8.71 ± 0.35
GTATAATATTCATATTCACACATTAAAATATATTTA [CACACA_site4879]	8.49 ± 0.49
AAAAAAAAAAAAAAAACACACATGTATAATATAATA [CACACA_site2209]	8.64 ± 0.3

Sequence	gcPBM binding intensity (ln)
TTATTATTAAAACACACACACAAAAAAAAAAAAAAA [CACACA_site1480]	8.27 ± 0.61
TACACCTGCACGATTGCACACAAATATGTTTTGAAG [CACACA_site8656]	8.79 ± 0.33
TTATATATATATATATAATATATATATATTTAAATA [XGTACX_negctrl_site453]	8.03 ± 0.16
TATAGATGTGGTTTATGTACATACTATAAAAAATCA [XGTACX_site1400]	8.74 ± 0.33
AAGAATATAATCTTCACACATATATATATATATATA [CACACA_site5927]	10.2 ± 0.33
AAGGACAACAAACAAACACACACAAAAAAAAAATAA [CACACA_site9263]	8.59 ± 0.6
TATATATCTTTATGCACACACAAAGAAAATTTTCCT [CACACA_site7366]	8.97 ± 0.092
ATTAATTTAATTTGAATTATTTTATTATATTATTAT [XGTACX_negctrl_site10]	8.19 ± 0.46
GTTTGAATATATCAGGTGCATTTATAATTCATATGA	8.55 ± 0.16
AGATGAACTAAAAAGGTGCTAAATATGTGACCACTG [GTGCAC_site9406]	8.88 ± 0.36
TAATTAAATATTTCAGTGCATTATTTTATGATCCAT [GTGCAC_site9456]	8.86 ± 0.51
TTTTTTTTAGTATGAACACACATATAGATTATAAAA [CACACA_site7391]	8.27 ± 0.39
ATTTAGAATGTTCCTACACACCAAATTTAAGTGTGC [CACACA_site7161]	8.58 ± 0.47
TACATACACAGACACACACACATATAAATATAAATA [CACACA_site7641]	8.71 ± 0.47
ATATTATAGATATACACACACACATGCATGCACATA [CACACA_site6203]	9.835 ± 0.092
ATAAGAAGAAGAAAAACACACATATGTAAATATATA [CACACA_site3138]	8.74 ± 0.71
TGTGAAATAAAATTTATACACACTTGCTAAATGATC [CACACA_site181]	8.34 ± 0.26
CTTTTTTTTTTAAATAGTACTTTCTCGTATACTCAT [XGTACX_site1842]	8.77 ± 0.49

Reference: the supplement of paper PMC11417369
